Experimental data as given in the RNAGym collection of RNA variant scans (doi:10.7554/elife.90254).
Read counts are not given, so values of variants with three or more changes are uncertain.

B1: LINE1-full (parent)
chain: UACGUAGGUGGUUUUCCCCUGAUAGUGCUAAGGGGGCCUGGAAGUUUGGACUGGGCAGAGCUCAACACAGCGUGGCAAAGUGGCUGUGGCUAGACUGCCUCUCUGGAUUCCUCGUCACUCAGCAGGGCAUCUCUGAGAGAAAUGCC

Variants of: B1
Test: self-cleavage, relative activity (ratio to wild type); higher = more cleavage; in vitro, sequencing; the parent is a self-cleaving ribozyme

Variant	self-cleavage
A57U U73G U130C A140G	0.25
A59G U73C G114U A117U	0.09
A59G G122A C133U	0.1
A59G U73A A78U U102A	0.09
A57U A79G A92G	0.11
A59U U102C U115C	0.99
A59G C61A U87A U91A U102A	0.09
A59G U130C U132C	0.12
A59U A79G A124U	1.41
A59G A140U A142G	0.15
A59U A64G C123U A140U	0.09
A57U A77G G125U	0.06
A59U C61A U143C	0.03
A57G U62A U115C	0.07
G58U U85A U134A	0.03
A59G U115C A129G	0
A59G G60U U73A	0.03
A59G U73A A79G G89A C128U	0.04
G58A G74A U119A	0.01
A57G U112C A140G	0.26
A57G U96A A107G A124U	0
A59U U62A A124G	0.03
A57G U87C U112C	0.31
A59U U62C U87C U134A	0

Variant	self-cleavage
A57G U96A U112C A121G	0.21
A59G G82A A107U	0.01
A57G U73C U115C	0.71
A59G A64U A78G U102C A141U	0.06
A57U A117U A129G	0.14
A59G U96C U102C	0.24
A57G U62C U85C	0.21
A59G A65G A78G	0.33
A59G U91C U132C	0
A59G U109A A136G U143A	0
A59G A69U U143C	0.04
A57G G86A A107U	0.03
G58U A64G A77G A121G	0
A57U U62A A78G G135A	0.05
A59G U62C U73C	0
A57U A79U C116U	0.05
A57G U85C A129G	0.13
A57U A65G G83A A138G	0.04
A59G A65G U102C	0
A59G U108C U115C	0
G58U U100C A117G	0.1
A57U A79U U87G	0.05
A57U A69U A124U	0
G58U A77U U96C U102A U134C A136U	0.06

Variant	self-cleavage
A59G A65G U143C	0.24
A57G G60A A64G A121U U132C	0.07
A57U A59G A92U	0.02
A57G U87A A94U A136U	0.07
A57G G72A A117G	0.62
A57U A77U U85C	0.24
A57U U132C A140G	0.07
A57U A67G G72A U100A U143C	0.03
A57U G97A A107U	0.01
A59G U62C U96C	0
A57U U100A U130A	0.08
A59U A77U G106U U143A	0.49
A59U A79G U115C	0
G58A A69U U96C A141U A142G	0.06
A59G U62C C101U	0
G58A C68U A78G	0.02
A57U G93A U130C	0.02
A59G U104C A142G	0
A59G C98A A136G	0.05
A57U U87C C99U A140G	0.06
A59G G75A A77G	0.02
A59U G80A U100C	2.17
A57U A94C U102C G127A U134A	0.03
A59G A121G C128A	0.09

Variant	self-cleavage
A57G G126A A141U U143A	1.21
A57U G60U U73A C98A	0.02
A57G U73C U130C A136G	0.92
A57U U108C A140G	0.12
A57U U102C U134C	0.07
A57U A65U A79G A141U	0.11
A57G U73A U85C U108G U143C	0.66
A57G U91C U115G	0.26
A57G G75C A78G A117C	0
A57G G125A A140G	0.64
A59G A65G A140G	0.08
A59G U62C A142G	0
A59U A64U U109C	0.57
A57G U104C A140G	1.38
A59U A107G A124G	1.19
A57U A59G U115C	0.15
A57U A77U A142C	0.05
A57G U87A U112C U143A	0.08
A59U U85A A107G	0.13
A59G U109A A142G	0.16
A59U C84A A141U	0.11
A57U A136G A141G	0.16
A59G U108C U132A A142G G144U	0.61
A57U G75A U96C	0.12

Variant	self-cleavage
G58A C84U C103A C111A	0.02
A57U A59U G135A A140G	0.08
A59U U96A A138U	0.21
G58A U100C U104C A138G	0.18
A57G G88U U102C U134A	0.03
A59G U73A U87C A129G	0
A59G A65G U85A	0
A57U A59G A141G	0.11
A59U G88U C116U	0.04
A59G C111A U115C	0.19
A59U A69G A77U G137A A138G	0.37
A59G G97C C99A A138G	0.06
A59G G75U U115A	0.05
A59G U85A U115C	0.07
A59U U85A G127A A136G	0.06
A57G C95A A141G	0.17
A57G G75C A140G	0.14
A59G A79U U87C A121U	0.18
A59G A79C A129G	0
A57U A94G A107G	0
A57U U73C G80A U112C	0.02
A57U U62C U85C C123U	0.1
A59G A64U A129U	0.07
A57G C84U U85C A107U	0

Variant	self-cleavage
A59G A94G A124G	0.21
A57G C128U U130G	0.85
A57G U62C G106U A117U A140G	0.05
A59G A78U U130C	0
A57U U96A A117C U132A	1.16
A57U G80A U87C C90U	0.04
A59G A67U G82A U91C C113U	0
A59G A77G A124G	0
A59U U81C U115C	1.45
A57U A94G A141G	0.16
A59U A107U A129U	0.82
A57U A69G G106A	0.05
A59G A64U A69G	0
A57U A79G A107G	0.12
A57U A64U A79G A92U	0.07
A59U U87C U132C A140G	0.26
A59G A124G U130C	0.21
A59U U108C U130C	1.19
A57G U73A U132C	0.83
A57G U73A U132G	0.65
A59G C84U A107G A121U	0.05
A59G U100C A141G	0.13
A59G A65U A79U U85A U130C	0
G58A U102C A121U	0.02

Variant	self-cleavage
A59U A79G U132C	0.79
A57G U102C U112C	0
A57G U73A A77U A129G	0.97
A59C U81A U143C	1.21
A59G A107G C123U	0.08
A57U A117U A124U	0.18
A57G G72A U91C U119C A124G A138G	0.41
A59G A77G U81C U134A	0
A57G G127U A142G	0.76
A59G A65G U100C	0
A59U C76U U119A A140G C145U	0.61
A59U A92U U108C	1.08
A59G C63U G88A A129U	0.03
A57U A77G A138G	0.19
G58A A69U A107G	0.03
A59G A67C U115C A141G	0
A59C A107U U115C	1.99
A57U A79G U96A A138G	0.95
A57U A65G A77G A78G A140G A142G	0
A57G U108C A141U	0.67
A59G A92G U112C	0.2
A57U G86A U130C	0.08
A59G G88A U102C	0
